# Laboratory results taken from PubChem BioAssay AID1645886 (National Center for Advancing Translational Sciences (NCATS), 2021).
# Several values for one entry are separate records, joined by “and”; a condition that tells them apart may be missing. Equal entries are not always repeated. Hit rate of the full screen: of about 16,000 compounds, about 260 (1.6%) were called active. The inconclusive results got no clear call from the source; some entries with a clear call stand among them for comparison. Calls follow the shape of the dose curve; as a rule, active = well fitted inhibition curve with a large enough effect; inconclusive = small, poorly fitted or top-dose-only effect; inactive = no such curve, though single readings can be large or run the other way. A potency beside an inconclusive call is a rough fit, not a confirmed value.
# Target: Rap guanine nucleotide exchange factor 4 (Homo sapiens) (UniProt Q8WZA2)
# Test: Validation qHTS for antagonist of cAMP-regulated guanine nucleotide exchange factor 4 (EPAC2); also: nearly all actives have a fitted effect of over 40% in size;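 as to activity, negative = inhibition: 100% = activation by cAMP agonist control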
# Conditions: EPAC2 Rap1B BODIPY-GDP exchange, fluorescence; activity, negative = inhibition: at 112 µM (top of the series)
# How it was run: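 Fluorescent exchange read-out: 100 nM EPAC2 with 250 nM RAP1B–BODIPY-GDP and 50 uM GDP; BODIPY-GDP release lowers fluorescence. Read at 480/540 nm every 5 min for 30 min at room temperature; normalized to 6.5 mM cAMP.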
# Potency is read from the fitted curve at half-maximal effect; tags tell the direction and shape of the fitted curve.
# Sequence of UniProt Q8WZA2 (Q8WZA2 whole entry, looked up): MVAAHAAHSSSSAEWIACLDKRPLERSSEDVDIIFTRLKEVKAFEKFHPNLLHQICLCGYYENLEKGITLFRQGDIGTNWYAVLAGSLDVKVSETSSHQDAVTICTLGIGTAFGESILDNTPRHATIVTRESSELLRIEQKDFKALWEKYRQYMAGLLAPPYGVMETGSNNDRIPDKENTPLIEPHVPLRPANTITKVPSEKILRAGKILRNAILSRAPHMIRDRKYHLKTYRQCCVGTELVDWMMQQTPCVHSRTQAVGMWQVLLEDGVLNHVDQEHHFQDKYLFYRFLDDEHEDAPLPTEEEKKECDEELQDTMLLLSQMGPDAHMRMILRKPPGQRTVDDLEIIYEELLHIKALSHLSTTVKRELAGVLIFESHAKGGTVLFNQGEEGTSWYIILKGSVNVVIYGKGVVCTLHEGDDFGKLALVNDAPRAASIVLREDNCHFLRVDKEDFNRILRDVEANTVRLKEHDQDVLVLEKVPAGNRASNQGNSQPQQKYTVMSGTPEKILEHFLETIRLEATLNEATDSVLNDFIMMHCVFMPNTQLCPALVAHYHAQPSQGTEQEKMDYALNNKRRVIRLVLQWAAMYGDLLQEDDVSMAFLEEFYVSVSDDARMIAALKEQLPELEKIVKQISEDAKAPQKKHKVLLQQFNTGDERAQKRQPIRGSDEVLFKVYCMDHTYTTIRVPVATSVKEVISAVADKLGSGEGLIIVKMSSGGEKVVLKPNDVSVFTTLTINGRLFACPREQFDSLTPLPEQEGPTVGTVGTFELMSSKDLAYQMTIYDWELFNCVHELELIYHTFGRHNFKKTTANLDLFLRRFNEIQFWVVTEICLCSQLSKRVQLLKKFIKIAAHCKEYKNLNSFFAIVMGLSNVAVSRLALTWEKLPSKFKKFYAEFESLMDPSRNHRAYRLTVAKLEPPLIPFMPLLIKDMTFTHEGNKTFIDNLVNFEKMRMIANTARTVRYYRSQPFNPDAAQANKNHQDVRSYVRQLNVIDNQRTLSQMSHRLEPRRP
SMILES,Potency,"activity, negative = inhibition"
CC(C)C1=CC2=CC[C@@H]3[C@@](C)(C(=O)O)CCC[C@]3(C)C2CC1 (stereo not given in full),"inconclusive: 100 µM [inhibitor, partial curve, poor fit]",–
CCC1(C2CCN(C(=O)c3coc4c3C(=O)CCC4)CC2)NC(=O)N(CCc2scnc2C)C1=O (stereo not given),–,inactive: -7.52%
NC(=O)Oc1ccc(Cc2ccccc2)cc1,"inconclusive: 39.8 µM [inhibitor, partial curve]",–
C[C@]12CC[C@@H]3c4ccc(O)cc4C[C@@H](CCCCCCCCCS(=O)CCCC(F)(F)C(F)(F)F)[C@H]3[C@@H]1CC[C@@H]2O (stereo not given in full),"inconclusive: 56.2 µM [inhibitor, single point]",–
COc1ccc2cc1Oc1ccc(cc1)C[C@H]1c3cc(c(OC)cc3CCN1C)Oc1c(OC)c(OC)cc3c1[C@H](C2)N(C)CC3,"inconclusive: 12.6 µM [inhibitor, partial curve, poor fit]",–
O=C(c1cccc(F)c1)N1CCC[C@@]2(CCN(C(c3ccccc3)c3ccccc3)C2)C1,"inconclusive: 10 µM [inhibitor, full curve]",–
CCC(C)[C@H]1COCCS(=O)(=O)N1Cc1ccccc1F (stereo not given in full),"inconclusive: 56.2 µM [inhibitor, partial curve, poor fit]",–
CCOc1ccc(C(=O)c2ccc(OC)c(O)c2O)cc1,–,inactive: -18.7%
CN1CCN(c2ncc3ncc(=O)n(Cc4cccs4)c3n2)CC1,"inconclusive: 50.1 µM [inhibitor, partial curve, poor fit]",–
Cc1nn(-c2ccccc2)c(C)c1CC(=O)NCC1Cc2cc(F)cc(-c3cccnc3)c2O1 (stereo not given),"inconclusive: 63.1 µM [inhibitor, partial curve, poor fit]",–
O=C(c1cc(C(F)(F)F)cc(C(F)(F)F)c1)N1CCC2(CC1)CN(c1ccccc1)C2,"inconclusive: 50.1 µM [inhibitor, partial curve, poor fit]",–
CC(C)(C)C(=O)OCOC(=O)[C@@H]1N2C(=O)[C@@H](NC(=O)[C@H](N)c3ccccc3)[C@H]2SC1(C)C,"inconclusive: 0.631 µM [inhibitor, full curve, poor fit]",–
O=c1cnc2cnc(Oc3ccccc3)nc2n1Cc1ccc(F)cc1,"inconclusive: 100 µM [inhibitor, single point]",–
O=[N+]([O-])c1cccc2c(Br)[nH]nc12,"inconclusive: 56.2 µM [inhibitor, partial curve] and inconclusive: 112 µM [inhibitor, partial curve, poor fit] and inconclusive: 28.2 µM [inhibitor, single point]",–
COC(=O)C[C@H]1c2cc(F)ccc2S(=O)(=O)N1Cc1ccccc1OC,"inconclusive: 89.1 µM [inhibitor, single point]",–
C[C@@H](CSc1ccccc1)CN1CC[C@H](NC(=O)OCc2ccccc2)CCC1=O,"inconclusive: 70.8 µM [inhibitor, partial curve, poor fit]",–
COc1cccc(-c2nc3cc4c(cc3cc2CN(C(=O)c2cccs2)C2CC2)CCC4)c1OC,"inconclusive: 100 µM [inhibitor, single point]",–
CC(C)C[C@H](CO)N(Cc1ccccc1)S(=O)(=O)N(Cc1ccccc1)[C@@H](CO)CC(C)C,"inconclusive: 0.447 µM [inhibitor, full curve, poor fit]",–

SMILES,Potency,"activity, negative = inhibition"
C[N+]1(CC(=O)c2ccc(Cl)cc2)CCOCC1,"inconclusive: 25.1 µM [inhibitor, partial curve]",–
O=C(O)CCC/C=C\C[C@@H]1[C@@H](/C=C/[C@@H](O)COc2cccc(C(F)(F)F)c2)[C@H](O)C[C@@H]1O,"inconclusive: 89.1 µM [inhibitor, single point]",–
CCCCC[C@H](O)/C=C/[C@H]1C=CC(=O)[C@@H]1CCCCCCC(=O)O,"inconclusive: 5.62 µM [inhibitor, single point]",–
CN(C)c1c(Cl)cc(/C=C/c2ccnc3ccccc23)cc1Br,"inconclusive: 35.5 µM [inhibitor, partial curve, poor fit]",–
Cc1cc(N)c2cc(NC(=O)Nc3ccc4nc(C)cc(N)c4c3)ccc2n1,active: 39.8 µM,–
N#Cc1cccc(-c2nc3cnc(N4CCNCC4)nc3n(C3CC3)c2=O)c1,"inconclusive: 56.2 µM [inhibitor, partial curve, poor fit]",–
COc1ccc(-n2c(=O)c(-c3cn(C)c4ccccc34)nc3cncnc32)cc1,"inconclusive: 56.2 µM [inhibitor, partial curve]",–
Cc1onc(-c2ccc3c(c2)OCO3)c1-c1ccc2[nH]ccc2c1,"inconclusive: 89.1 µM [inhibitor, partial curve, poor fit]",–
O=S1(=O)CCOC[C@H](c2ccccc2)N1Cc1ccc(Cl)cc1Cl,"inconclusive: 44.7 µM [inhibitor, full curve]",–
COC1C[C@@H](O[C@@H]2C(C)C(=O)OC(C)C(C)C(O)C(C)C(=O)[C@@]3(CO3)CC(C)C(OC3OC(C)CC(N(C)C)C3O)C2C)OC(C)[C@@H]1O (stereo not given in full),–,inactive: -7.54%
CN(Cc1cnc2ccccn12)C1CCN(c2cccc(NC(=O)c3cccnc3)c2)CC1,–,inactive: -33.4%
COc1ccccc1CC(=N)N1C[C@@H]2C(=O)CCC(c3ccccc3)(c3ccccc3)[C@@H]2C1,"inconclusive: 70.8 µM [inhibitor, partial curve]",–
CCOc1ccc2c(c1)C(C)=CC(C)(C)N2,"inconclusive: 0.631 µM [inhibitor, full curve, poor fit]",–
CC(C)COCC(CN(Cc1ccccc1)c1ccccc1)N1CCCC1 (stereo not given),"inconclusive: 50.1 µM [inhibitor, partial curve, poor fit]",–
COC(=O)[C@@H](CC(C)C)NS(=O)(=O)N(Cc1ccccc1)[C@@H](CC(C)C)C(=O)OC,"inconclusive: 39.8 µM [inhibitor, partial curve]",–
NC(=O)C1CCCN(Cc2ccc3c(c2)CN(Cc2ccccc2)CCO3)C1 (stereo not given),–,inconclusive: -34.8% [inhibitor]
COC(=O)[C@H]1[C@H]2C[C@@H]3c4[nH]c5cc(OC)ccc5c4CCN3C[C@H]2C[C@@H](OC(=O)COc2ccc(OC)cc2)[C@@H]1OC,–,inactive: -1.98%
